Data as given in PubChem BioAssay AID686978 (National Center for Advancing Translational Sciences (NCATS), 2013).
Values joined by “and” are separate entries in the source; they are usually repeats but may differ in a detail not shown here. Equal entries are not always repeated. Screen size: about 420,000 compounds; about 64,000 (15%) were called active. Inconclusive results, whose numbers are uncertain, are shown with a selection of clear calls. The call rests on the fitted dose curve; in most records, active means well fitted inhibition curve with a large enough effect; inconclusive means small, poorly fitted or top-dose-only effect; inactive means flat fitted curve, though single readings scatter. Potencies of inconclusive entries are left out as doubtful fits.

Assay: qHTS for Inhibitors of human tyrosyl-DNA phosphodiesterase 1 (TDP1): qHTS in cells in absence of CPT; further: nearly all actives have a fitted effect of over 55% in size
Settings: DT40 Tdp1-/- hTDP1 cells, no CPT, ATP luminescence, 48 h; activity change, negative = growth inhibition: at 46.2 µM (top of the series) unless noted
Procedure, shortened: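 Growth of hTDP1-complemented DT40 Tdp1-knockout cells is measured by ATP luminescence after at least 48 hr compound exposure at 37 °C, with DMSO substituting for the 20 nM CPT used in the parallel screen.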
On the % scale 0 is the no-effect control and ±100 the full control effect; potency means the concentration at half of the fitted maximal effect; tags describe the fitted curve by direction and shape.

| SMILES | Potency | activity change, negative = growth inhibition |
| --- | --- | --- |
| O=C(CSc1nccc2ccccc12)N1CCN(Cc2ccc3c(c2)OCO3)CC1 | inconclusive [inhibitor, single point] | – |
| Cc1cccc(NC(=O)NCC(c2ccc(F)cc2)N2CCN(C)CC2)c1 (stereo not given) | – | inconclusive: -31.2% [inhibitor] |
| CC(=O)c1ccc(OCC(=O)Nc2ccc(N3CCCCC3)cc2)cc1 | inconclusive [inhibitor, partial curve] | – |
| COc1ccc(N(CC(=O)NC2CCCC2)C(=O)Cn2nnc(-c3ccc(F)cc3)n2)cc1OC | – | inactive: -14.5% |
| O=C1CC2(CCCC2)C(=O)N1CN1CCN(S(=O)(=O)c2ccc(F)cc2F)CC1 | – | inactive: -2.62% |
| COc1ccc(OC)c(CN2CCN(C(=O)c3cccc(S(=O)(=O)Nc4ccccc4OC)c3)CC2)c1 | inconclusive [inhibitor, single point] | – |
| COc1ccc(-c2noc(N3CCC(C(=O)NC(C)c4ccccc4)CC3)n2)cc1 (stereo not given) | active: 25.9 µM | – |
| Cc1ccc(-c2nc(N3CCOCC3)sc2C(=O)N2CCCCC2)cc1 | inconclusive [inhibitor, full curve] | – |
| CCc1cc2c(NCC(=O)O)ncnc2s1 | – | inconclusive: -33.4% [inhibitor] |
| O=C(Nc1ccccc1C(=O)O)/C(=C/c1ccc([N+](=O)[O-])cc1)NC(=O)c1ccc(Br)o1 | – | inactive: 0.138% |
| COc1cccc(/C=N/Nc2cc(C)nc(-c3ccccc3O)n2)c1O | active: 8.2 µM | – |
| CC(C)(C)c1cc(C(=O)Nc2cccnc2)cc(C(=O)Nc2cccnc2)c1 | inconclusive [inhibitor, partial curve] | – |
| O=C(COc1coc(CN2CCN(Cc3ccccc3)CC2)cc1=O)Nc1ccccc1 | – | inactive: -17.9% |
| Cc1cc(=O)oc(C)c1C(=O)NCCCN1CCN(c2ccccc2F)CC1 | – | inactive: -23% |
| Cc1cc(C(=O)COC(=O)C2CC2)c(C)n1-c1ccc(F)cc1 | inconclusive [inhibitor, single point] | – |
| CCCS(=O)(=O)NC(=O)C1(C)CCCN(C(=O)c2oc3ccccc3c2C)C1 (stereo not given) | – | inactive: -1.58% |
| NS(=O)(=O)c1ccc(CCNC(=O)C2COc3ccccc3C2)cc1 (stereo not given) | inconclusive [inhibitor, single point] | – |
| CCCCn1c(SCn2nnc3ccccc3c2=O)nc2cc(S(N)(=O)=O)ccc21 | inconclusive [inhibitor, partial curve, poor fit] | – |
| O=C(Nc1ccccc1N1CCCCC1)c1ccc(OC(F)F)cc1 | – | inactive: -9.98% |
| Cc1cccc(OCCCC(=O)NNC(=O)CCN2CCN(c3ccccc3)CC2)c1 | inconclusive [inhibitor, single point] | – |
| CCOc1nc(C)cc(C)c1S(=O)(=O)c1ccc(Cl)cc1 | – | inconclusive: -31.5% [inhibitor] |
| CCc1ccc(C2CC(=O)c3c([nH]c(C(=O)OCC4CCCCC4)c3C)C2)cc1 (stereo not given) | inconclusive [inhibitor, partial curve, poor fit] | – |
| CCn1c(=O)c2cc(C(=O)Nc3ccccc3OC)sc2c2ccccc21 | active: 20.6 µM | – |

| SMILES | Potency | activity change, negative = growth inhibition |
| --- | --- | --- |
| Cc1nnc(NC(=O)c2cc(S(=O)(=O)N(C)C)ccc2N2CCCC2)s1 | inconclusive [inhibitor, single point] | – |
| O=C(NCc1ccccc1)Nc1cccn(Cc2c(F)cccc2Cl)c1=O | inconclusive [inhibitor, single point] | – |
| CNc1ncnc2c1ncn2[C@H]1CN(CCc2ccccc2)C[C@@H](CO)O1 | inconclusive [inhibitor, single point] | – |
| COc1ccc(NC(=O)CSc2nc3c(c(=O)n2-c2ccccc2OC)SCC3)cc1 | inconclusive [inhibitor, single point] | – |
| CS(=O)(=O)c1ccc(Nc2nc(C(N)Cc3ccc(F)cc3)cs2)cc1 (stereo not given) | active: 20.6 µM | – |
| Cc1ccc(C(=O)OCC(=O)NC2CCCCCCC2)cc1C | inconclusive [inhibitor, single point] | – |
| CCN(c1cccc(C)c1)S(=O)(=O)c1ccc2c3c(cccc13)C(=O)N2 | active: 11.2 µM | – |
| COCCn1nnnc1C(C(C)C)N(Cc1cccnc1)Cc1ccccc1Cl (stereo not given) | active: 23.1 µM | – |
| CCn1ncc(CN2CCCC(C(=O)c3cccc(OC(C)C)c3)C2)c1C (stereo not given) | inconclusive [inhibitor, single point] | – |
| Cc1ccc(-n2ncc3c(N4CCCCCC4)ncnc32)cc1 | inconclusive [inhibitor, single point] | – |
| Cc1cc(C)n(-c2ccc(C(=O)Nc3cccc([N+](=O)[O-])c3)cc2)n1 | inconclusive [inhibitor, full curve] | – |
| C[C@@H]1CCCCO[C@H](CN(C)Cc2ccc(C(F)(F)F)cc2)[C@H](C)CN([C@@H](C)CO)C(=O)c2cc(NC(=O)Cc3ccccc3)ccc2O1 | active: 14.6 µM | – |
| COc1ccccc1S(=O)(=O)N(C)C[C@@H]1Oc2ncc(-c3ccc(C)cc3)cc2C(=O)N([C@H](C)CO)C[C@@H]1C | active: 16.4 µM | – |
| O=C(Nc1ccccc1N1CCCC1)c1cc2ccccc2o1 | inconclusive [inhibitor, partial curve] | – |
| O=C(COc1ccccc1)NCc1ccc2c(c1)CCN2C(=O)c1ccc(F)cc1 | inconclusive [inhibitor, single point] | – |
| Cc1ccc(Cn2c(=O)c3cccnc3n(CC(=O)Nc3cccc(C(F)(F)F)c3)c2=O)cc1 | active: 18.4 µM and active: 16.4 µM | – |
| Cc1ncc(N=Nc2ccccc2)c(-c2ccccc2)n1 | inconclusive [inhibitor, single point] | – |
| Cc1nc2ccccc2c(=O)n1NC(=O)c1c(F)cccc1F | – | inactive: 13.1% |
| Cc1ccc(N2C(=O)C(Cc3ccccc3)NC2=S)cc1 (stereo not given) | – | inactive: -9.36% |
| O=C(Nc1cccnc1)c1cc(Cl)ccc1Cl | – | inactive: 14.2% |
| Cc1ccc(C(=O)CSc2nnc3ccccn23)c(C)c1 | – | inactive: -0.396% |
| c1ccc(-n2ncc3c(NC4CCCC4)ncnc32)cc1 | inconclusive [inhibitor, partial curve, poor fit] | – |
